The values below come from patent publication US8470556B2, “Nucleic acids that encode antigen binding proteins that bind PAR-2” (Amgen Inc., priority 2007, dated 2013).

Substitutions are numbered along the chain they refer to.

One assay addresses T1, PAR-2 (Homo sapiens, UniProt P55085).
T1 sequence (P55085 26-397): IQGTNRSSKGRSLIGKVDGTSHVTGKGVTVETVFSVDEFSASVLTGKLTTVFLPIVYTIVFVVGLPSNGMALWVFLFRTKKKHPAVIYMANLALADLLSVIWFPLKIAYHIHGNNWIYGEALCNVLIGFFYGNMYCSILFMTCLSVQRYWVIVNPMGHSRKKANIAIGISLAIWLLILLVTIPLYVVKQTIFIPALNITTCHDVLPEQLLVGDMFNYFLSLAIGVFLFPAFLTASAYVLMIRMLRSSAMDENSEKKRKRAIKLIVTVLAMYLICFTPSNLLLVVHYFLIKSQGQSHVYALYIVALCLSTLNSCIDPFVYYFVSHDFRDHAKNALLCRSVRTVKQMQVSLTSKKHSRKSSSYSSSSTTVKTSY
As to the kind of experiment: FLIPR assay for Ca2+ mobilization. Type of assay: cell-based. An excerpt: Hybridoma clones thus generated are screened for reactivity with PAR-2. Initial screening of hybridoma supernatants may utilize a peptide ELISA, a whole cell ELISA and/or a cell-based assay suitable for high-throughput screening (fluorometric microvolume assay technology or FMAT, substantially as described by Fiscella, et al., Nature Biotechnology 21:302-307; 2003). Hybridomas that are positive in this screening method may be further cultured to provide larger amounts of antibody, which can then be purified as described below and screened by additional cell-based assay(s) (for example, a flash plate assay using cells co-expressing apoaequorin, a Ca2+-sensitive photoprotein, substantially as described by Le Poul et al., J. Biomol. Screen. 7(1):57-65; 2002, and PAR-2), or a fluorometric imaging plate reader (FLIPR) assay, which is used to determine changes in intracellular Ca2+ levels, substantially as described in S. Pitchford, Genetic Engineering News vol. 18, Number 15 (1998) and/or Sullivan et al., Methods in Molecular Biology vol. […]
Several PAR-2 antibodies were tested in different assay formats; Table 2 summarizes the results. IC50 values were determined in a FLIPR assay for Ca2+ mobilization described previously; binding to the upstream region of the cleavage site versus the downstream region of the cleavage site was determined using the Western blot assay described previously.
For orientation: Calcium flux is commonly read through the fluorescence of an indicator in the cells.

Assay [1] has as its target T2, N-terminal PAR-2/Fc (full length and truncated) (Homo sapiens, UniProt P55085).
T2 construct: made in house; host or cells: CHO cells (10% FCS for uncleaved; serum-free for clipped)
As to the kind of experiment: Western blot, binding to uncleaved versus clipped N-terminal PAR-2/Fc. The conditions noted are these: downstream binder binds both full length and truncated PAR-2-Fc. An excerpt: N-terminal PAR-2/Fc polypeptide (SEQ ID NO:6) is expressed in suitable mammalian cells such as CHO cells. Expression supernatant from CHO expression cells cultured in serum-free media contain a CHO cell trypsin-like serine protease that cleaves PAR-2/Fc at the activation Arg-Ser bond, generating the “clipped” version of the PAR-2/Fc polypeptide. CHO expression cells cultured in 10% fetal calf serum (which contains normal levels of plasma proteinase inhibitors at concentrations far in excess of the concentration of the CHO cell trypsin-like serine protease) express uncleaved N-terminal PAR-2/Fc in culture supernatants. […] The resultant purified Fc-constructs are analyzed by amino terminal sequence analysis (Edman degradation), size exclusion chromatrography, absorbance spectral scan, and mass spectroscopy, as needed.
To analyze binding to uncleaved versus cleaved PAR-2, various amounts of purified uncleaved and clipped N-terminal PAR2-Fc are subjected to SDS-PAGE using 8-16% polyacrylamide gradient gels (Novex gels, Invitrogen Life Technologies) in a Tris-Glycine buffer system. […] Antibodies to be analyzed are diluted in 1:1 OBB:TBS at a desired final concentration for 1 hr at room temperature. […] Membranes are washed as described above, and if desired, analyzed using a LI-COR Odyssey Infrared Imaging System (LI-COR Biosciences). […]
For orientation: In western blotting, separated proteins are transferred to a membrane and probed.

T2 sequence (P55085 with tags, fused parts or gaps limits assumed): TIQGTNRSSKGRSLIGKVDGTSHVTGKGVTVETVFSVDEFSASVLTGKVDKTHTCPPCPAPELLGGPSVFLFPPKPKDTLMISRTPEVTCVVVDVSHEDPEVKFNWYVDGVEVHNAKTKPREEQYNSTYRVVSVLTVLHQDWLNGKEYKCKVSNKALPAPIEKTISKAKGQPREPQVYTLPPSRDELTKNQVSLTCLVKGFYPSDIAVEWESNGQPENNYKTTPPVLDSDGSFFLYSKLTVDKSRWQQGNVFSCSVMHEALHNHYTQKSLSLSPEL

B1: 12D5: anti-PAR-2 monoclonal antibody; heavy SEQ ID NO: 31, light SEQ ID NO: 33 (antibody, listed as Homo sapiens, V domains shown)
VH: QVQLQQSGPGLVKPSQTLSLTCAISGDSVSSNRAAWNWIRQSPSRGLEWLGRTYYRSKWYNDFAVSVRSRITITPDTSKNQFSLQLNSVTPEDTAVYYCARDRNSGYYYYGLDVWGQGTTVTVSS
VL: KIVMTQSPATLSVSPGERATLSCRASQSVSNNLAWYQQKPGQAPRLLIYGASTRATGIPARFSGSGSGTEFTLTITSLQSEDFAVYYCQQYNNWPLTFGGGTKVEIK
B1: in the assay with PAR-2, the IC50 (usually the point on the concentration scale where inhibition reaches its midpoint) was above 1000 nM. Moreover, in assay [1], the “Binding to Cleavage Site Down stream” value is recorded as “xx”.

B2: 13F2: anti-PAR-2 monoclonal antibody; heavy SEQ ID NO: 35, light SEQ ID NO: 37 (antibody, listed as Homo sapiens, V domains shown)
VH: B1 VH with F63H, R68K, T94K
VL: B1 VL with K1E
For the molecule B2, the IC50 in the assay with PAR-2 was above 1000 nM. For the same molecule, in assay [1], the “Binding to Cleavage Site Down stream” value was “xx”.
